Results reported in the supplement of paper PMC10126150.
Values marked as one replicate rest on one cluster of the flow cell; about a third of the high ones do not repeat.

Test system: ATP
Assay: switch fluorescence ratio, 500 uM ATP over buffer (Cy3 cluster intensity, sum of 5 cycles each) (fold (ratio)); higher = stronger signal-on switching upon ATP binding; sequences stand for … in TCGTCGGCAGCGTCAGATGTGTATAAGAGACAGTTTTTTTTTTTTTTTTTTTTTTTTT…TC
Conditions: aptamer strand: ATP DNA aptamer (quencher-CACCTGGGGGAGTATTGCGGAGGAAGG + anchor), 100 nM annealed; ATP concentration: 500 uM; one replicate
Summary of the method: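 Between each of five buffer/ATP cycles, the flow-cell was stripped with NaOH and re-annealed. Each cycle imaged Cy3-labelled switching-strand clusters, annealed to 100 nM quencher-labelled ATP aptamer on a modified Illumina MiSeq flow-cell, first in selection buffer and then after 15 min with 500 uM ATP at 22 °C. The fluorescence ratio is summed target-cycle over summed buffer-cycle Cy3 intensity per cluster, averaged per switch-domain sequence, with clusters outside 100-1000 RFU excluded.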
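Note: ATP exposure 15 min at 22 °C before imaging.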

Sequence	switch fluorescence ratio
ACTCTGTGTG	1.04
CATGCTATGC	1.17
AGGAGATTTG	0.988
TGGTTCTGTC	1.01
CCGGGATGGC	1.54
GCTGGACCTG	1.03
GCGATATAAG	1.01
GGGTAGCTAA	0.988
TGATGCTCG	0.968
AGGTCCTCA	0.993
AAGTATAGAC	1.03
GTTTTCTCAG	1.01
CGAAGAAATA	1.02
CAGGGCTCGA	1.02
TTCCGCCTA	1.55
CGGATAGCT	0.989
TAGGTATTCG	1.07
ACTCTCTTCA	1.02
TGCCAGACGC	1.04
TGCCCGATAC	3.39
AGTGCTGCC	1.01
ACGGGACTG	1.02
AGATCCCCGG	1.03
CCCATTTTTG	1
TCACTGCGAT	1.91
GGGAGACACT	1.01

Sequence	switch fluorescence ratio
TATCCAATCG	0.987
GGTAGGTGCC	1.03
CGGGAAGTAT	0.976
AGTACGGCCT	1.03
GGCACGGACA	1.21
TAGTTGCCGG	0.971
AAATTTCATC	1.05
TTAGAATGAT	1.01
CAAAGAAACT	1.05
TAATGGGGTG	1.08
TCCAAAAAGC	1.02
CTAAGATTTC	0.993
CGTAGCGGGA	1.17
ACGGAGCGCA	2.67
CCTTGTTACG	1.15
ATATGGTAAC	1.04
TGCTGCGCCA	1.08
ATAAATGAGA	1.03
ACTAATCGGC	1
GCACACGGGA	1.09
GTAAACATCT	1.03
CAATGTGCGC	0.957
TATAATAGCG	0.999
CAAGAGGTAA	0.994
CTCAGATTTG	1.02
AAAGTTCTGT	1.01

Sequence	switch fluorescence ratio
TGCTGCAGCT	0.98
ATGAATCTTT	0.992
GGGATTAAG	1.05
GACCGGGAAA	1.06
TATCTGCAGA	0.992
ATGCCGAATT	1.03
GCCCCGGTCG	1.06
TATTTTTCCC	1.02
TGTTATTTTA	1
AGCTATAGGG	1.01
ACTATGGGTC	1.03
GGTAGTCAGG	0.989
ACGACGGCGT	1.01
AGCGTTTCGG	0.985
AGTCAAGCTT	0.994
CACACTTGAC	1.04
TTTGAGTATG	0.973
CCTGAAAACG	1.06
AGCATCCGTC	1.09
GGATTCCATG	1.02
TATAAAGGTC	1.03
AAGCTAGGCG	1.03
AGTAATGTAC	1.1
GTAGTTTTCC	0.998
TAGGGAATTT	0.999
GTCCTCGGGT	1.01

Sequence	switch fluorescence ratio
AGCGATTGAA	1.02
AACTGAGAT	1.04
AGACACAATG	1.03
TAGTCCTT	0.972
GGCTTAGG	1.02
AACATAAGGG	1
GCCGCCACGT	1.03
CGACTCAGTT	1.06
GTTTTACGTA	1.02
ATCTCAGGGA	0.995
TGCTGCTG	0.965
CAGCTTACGT	1.05
TAGTGCCTCA	1
TCCGCTTT	1.99
AAGGCTAGCT	0.937
TCTTAGTTTT	0.955
TGACTGCCC	1.21
ACCTTCTTGC	1.79
GAACGGGGAT	0.986
ACCCTATATC	1.09
AGCGGTGCGC	0.985
CGGGTAAAAG	0.999
GGGAAGAGCT	0.968
CTAGGCCTGA	0.953
CTAAGGATCA	1
TTGTGTGAT	1.02

Sequence	switch fluorescence ratio
ATTGAAATAG	0.989
TATTTCTATG	1.02
TTTAGTCTGG	0.988
AGTATGTGTG	0.964
GCTTGGAATG	1.02
CGTTAGCCGG	1.03
TGGCGGAATG	0.975
ATTTGTTTGG	0.973
AATATGAAGA	1.03
ATCAGATGTC	1.18
CGCAGGGACT	1.48
GCGAGCTTTT	1.04
TTTTTGAATA	0.982
GATACTAGGT	1.03
GTCGAAGCTG	1.01
TAGGACAAGG	0.953
ACCAGGAGCG	0.812
ACGCAATGTG	1.44
GTGACGACAG	0.991
CCGGCCGCGG	1.11
GGCGACGGTT	0.989
GCAGTATATT	1.09
GTTTGGACGG	0.965
GGGCTGTCGG	0.988
CTTCAAGTTA	1.05
TCCCTTGGTA	1.01

Sequence	switch fluorescence ratio
CGGCCGTGTT	0.986
CTTCGTGTT	0.985
CAGTTCACAA	1.04
CTATGGTGCG	1.03
TTTAATAGGT	0.991
GCAGTATTCG	1.06
CTTCATAGC	1.03
TTGGTGAGAA	0.983
GCCAGTCTTA	1.03
GAAGTTATGT	0.98
CCTGTAAGTT	1.01
GGGTTATATC	1.02
ACCGTTGAAA	1.01
TGCGACGGCT	1.04
GAAATAGG	0.94
GGTCTTTACT	1.03
CAGATACATA	1.06
GCAAAATGTG	1
GACTAAGGTG	1.25
ATCATTATAG	0.986
GAGTCGAGTC	1
ACTTGTAAGC	1.01
CGTATCCTGC	0.966
ATTGGCAG	0.999
ATGATTTCCC	1.09
TGTCGTTAGT	1.03

Sequence	switch fluorescence ratio
TACCCCTATT	1.07
GGCCATCCGC	1.43
TCAAAACGT	1.07
CAAATCCCAG	1.04
TTCTACCTG	1
GAATATTAGA	1.03
ACGCTTCCAG	1.03
GTTAGGTCGG	1.02
CATGAGGGGC	0.967
TGCATCATTT	0.966
TATGCTACCC	1.21
AGGATGT	0.97
TCATTGCCCG	0.925
GGTCGCCTGC	0.948
GCATTTGACC	1.06
GTTCTGTTAC	0.998
TGCTAGGTGC	1.46
TAAACTTACG	1.46
CTCCTAGCGG	1.38
TATAGAAGTC	1.04
TTTACTTCAT	1.07
AACGTGTTT	1
TCCTGAAAAA	1.04
CTCCATCGTC	1.1
CGATAAGATC	1.07
TAATCAAAAG	0.999

Sequence	switch fluorescence ratio
AAACGCGACG	1.05
ATTTTAAGAA	0.998
TTTATCGTAG	1.03
CAGCGCCTTG	0.971
CCTAATTCGT	1.03
CTAAACGGTT	0.998
AAAGCATTGA	1
GCTCTTTGTT	1.04
AGCCTAGGCC	1.09
AAGGGTACG	1
ATCAACAGAT	1.05
AAAGGCAATC	2.59
CGGGCTTATG	1.02
GGGATCGGAT	0.985
TTCGGTGAAT	0.99
GACCAAAAGA	1
ATCTTTCAGG	1
TAACTCTCT	1.01
ATTATAGACC	1.03
